Reference: the CheMixHub viscosity set

Settings: 101 kPa

SMILES	viscosity (303.15 K)	viscosity (298.15 K)	viscosity (308.15 K)
Cc1cccc(C)c1	0.538 ± 0.005 mPa·s [study A] and 0.5531 ± 0.015 mPa·s [study B] and 0.5009 ± 0.0079 mPa·s [study C] and 0.572 ± 0.015 mPa·s [study D]		
CCC(C)O (stereo not given)		2.58 ± 0.6 mPa·s [study A] and 2.934 ± 0.077 mPa·s [study B] and 3.06 ± 0.028 mPa·s [study C] and 3.15 ± 0.048 mPa·s [study D]	
CCCCn1cc[n+](C)c1.F[B-](F)(F)F	84.2 ± 1.6 mPa·s [study A] and 78.84 ± 1.6 mPa·s [study B] and 76.32 ± 4.7 mPa·s [study C] and 82.2 ± 1.7 mPa·s [study D]	98.95 ± 6.9 mPa·s [study A] and 98.86 ± 6.3 mPa·s [study B] and 106 ± 2 mPa·s [study C] and 116 ± 40 mPa·s [study D]	
O=S1(=O)CCCC1			8.95 ± 0.19 mPa·s [study A] and 9.033 ± 0.12 mPa·s [study B] and 8.833 ± 0.045 mPa·s [study C] and 8.795 ± 0.07 mPa·s [study D] and 9.05 ± 0.91 mPa·s [study E] and 9.05 ± 0.93 mPa·s [study F]

± gives the uncertainty stated by the source. For part of its entries the source gives two or more results. They are shown here; other results are not. There may be further records. Values that stand side by side are repeats (runs, samples, wells, individuals or studies). Brackets tell where a record comes from. Letters count within one entry.
